Measured values reported in PMC4336329 (PLoS ONE, 2015).
Screen size: about 310,000 compounds; about 14,000 (4.5%) showed an effect of 50% or more. Effects have a minus sign here. The list shows a part of the results.

molecular target: human ether-à-go-go-related gene (hERG) potassium channel (human, UniProt Q12809); test: primary screen, population patch clamp on CHO cells stably expressing hERG
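Also: peak tail current of the secondary pulse compared with the same well before compound.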

Sequence of human ether-à-go-go-related gene (hERG) potassium channel (Q12809 whole entry, looked up): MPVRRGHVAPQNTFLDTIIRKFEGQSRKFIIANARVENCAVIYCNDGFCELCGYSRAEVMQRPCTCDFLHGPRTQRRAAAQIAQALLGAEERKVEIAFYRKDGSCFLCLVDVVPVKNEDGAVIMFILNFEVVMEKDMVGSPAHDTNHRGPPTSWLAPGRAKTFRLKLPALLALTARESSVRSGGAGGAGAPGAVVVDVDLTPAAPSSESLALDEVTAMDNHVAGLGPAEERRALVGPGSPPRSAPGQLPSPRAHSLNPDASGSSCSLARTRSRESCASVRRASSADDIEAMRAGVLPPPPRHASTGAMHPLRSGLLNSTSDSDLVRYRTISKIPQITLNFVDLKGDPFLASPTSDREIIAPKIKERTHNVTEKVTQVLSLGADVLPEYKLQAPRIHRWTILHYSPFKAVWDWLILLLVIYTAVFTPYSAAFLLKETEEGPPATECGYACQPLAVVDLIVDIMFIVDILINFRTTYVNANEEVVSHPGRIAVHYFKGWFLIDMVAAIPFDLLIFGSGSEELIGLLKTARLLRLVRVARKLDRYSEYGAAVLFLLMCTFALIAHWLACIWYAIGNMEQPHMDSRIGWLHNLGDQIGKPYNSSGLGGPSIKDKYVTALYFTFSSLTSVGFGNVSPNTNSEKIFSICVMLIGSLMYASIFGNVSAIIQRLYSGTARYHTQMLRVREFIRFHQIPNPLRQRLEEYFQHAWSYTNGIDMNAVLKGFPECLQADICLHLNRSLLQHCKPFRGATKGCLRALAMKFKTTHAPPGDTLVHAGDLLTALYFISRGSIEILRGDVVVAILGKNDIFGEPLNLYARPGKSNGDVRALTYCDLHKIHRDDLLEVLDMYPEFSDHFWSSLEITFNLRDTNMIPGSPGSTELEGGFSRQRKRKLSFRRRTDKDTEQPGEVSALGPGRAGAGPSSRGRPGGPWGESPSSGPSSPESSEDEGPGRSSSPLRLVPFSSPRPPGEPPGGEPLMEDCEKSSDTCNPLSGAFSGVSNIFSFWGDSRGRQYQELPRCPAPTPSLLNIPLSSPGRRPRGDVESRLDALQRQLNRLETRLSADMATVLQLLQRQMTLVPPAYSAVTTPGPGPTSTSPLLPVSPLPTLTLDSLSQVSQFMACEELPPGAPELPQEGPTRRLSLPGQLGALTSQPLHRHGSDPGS

Which “hERG current change (%, negative = inhibition) at 10uM” value does the source give for `CCN(CC)C(=O)c1cc(-c2ccc(Br)cc2)on1` here?
The value was -8.06%.

For `CC(C)(C)n1nnnc1C(c1cccnc1)N1CCN(C(=O)c2ccco2)CC1` (stereo not drawn), which “hERG current change (%, negative = inhibition) at 10uM” value is on record?
The value was -15.1%.

With `CC1(C(O)(C#CCN2CCCCC2)c2ccccc2)CCCC1.Cl` (stereo not drawn) as the compound, how does the “hERG current change (%, negative = inhibition) at 10uM” value read?
The value was -45.1%.

For `CCOc1ccc2nc(C)cc(Nc3ccc4c(c3)OCCO4)c2c1.Cl`, which “hERG current change (%, negative = inhibition) at 10uM” value is on record?
The value was -72.4%.

Which “hERG current change (%, negative = inhibition) at 10uM” value does the source give for `C#CCNc1ccc(C(=O)OCC)cc1` here?
The value was 11.8%.

For `COc1ccc(CCNc2cc(C)[nH]c(=O)c2)cc1OC`, which “hERG current change (%, negative = inhibition) at 10uM” value is on record?
Its value is 29.6%.

How did the “hERG current change (%, negative = inhibition) at 10uM” value turn out when `COc1ccc(NC(=O)N2CCCC(CNS(=O)(=O)c3cccs3)C2)c(C)c1` (stereo not drawn) was run?
Its value is 10.9%.

How did the “hERG current change (%, negative = inhibition) at 10uM” value turn out when `Cc1cc(C)c(NC(=O)COC(=O)c2ccc([N+](=O)[O-])s2)c(C)c1` was run?
The value was 0.0437%.

Which “hERG current change (%, negative = inhibition) at 10uM” value does the source give for `CC1CCCCC1NC(=O)CSc1nnc(-c2ccco2)n1C` (stereo not drawn) here?
The value was -1.47%.

How did the “hERG current change (%, negative = inhibition) at 10uM” value turn out when `Cc1cccc2cc(COC(=O)C(C)(C)C)c(=O)[nH]c12` was run?
Its value is 12.8%.

Which “hERG current change (%, negative = inhibition) at 10uM” value does the source give for `O=C(CCc1ccccc1O)N/N=C/c1ccc(Sc2cccc3cccnc23)o1` here?
The value was 21.8%.

For `CCN(c1ccccc1)S(=O)(=O)c1ccc2ccccc2c1`, which “hERG current change (%, negative = inhibition) at 10uM” value is on record?
Its value is -3.29%.

For `COc1ccc(CC(=O)c2ccc(OC)c(OC)c2)cc1`, which “hERG current change (%, negative = inhibition) at 10uM” value is on record?
Its value is 5.48%.

`COc1ccc(OC)c(CN2CCN(C(=O)CNC(=O)c3ccc(C(C)(C)C)cc3)CC2)c1` was tested. Which “hERG current change (%, negative = inhibition) at 10uM” value did it give?
Its value is -53.9%.

How did the “hERG current change (%, negative = inhibition) at 10uM” value turn out when `CCCCn1cc(C(C)(C)C)c(C#N)c1NC(C)=O` was run?
The value was 17.4%.

For `O=C(NCC1(N2CCCCC2)CCCCC1)C1CC(=O)N(c2ccc3c(c2)OCCO3)C1` (stereo not drawn), which “hERG current change (%, negative = inhibition) at 10uM” value is on record?
Its value is 20.6%.

Which “hERG current change (%, negative = inhibition) at 10uM” value does the source give for `COC(=O)C1=C(c2ccc(C(C)=O)cc2)C[C@@H]2CC[C@H]1N2C(=O)N1CCOCC1` here?
Its value is 11.8%.

Which “hERG current change (%, negative = inhibition) at 10uM” value does the source give for `COc1ccccc1N1CCN(C(=O)c2cc(-c3ccc(C)cc3)on2)CC1` here?
The value was -4.06%.

For `COc1ccc(-c2[nH]ncc2CN2CCN(Cc3cccs3)CC2)c(F)c1`, which “hERG current change (%, negative = inhibition) at 10uM” value is on record?
Its value is -31.9%.

`COc1cccc(NC(=S)Nc2cccc3ccccc23)c1` was tested. Which “hERG current change (%, negative = inhibition) at 10uM” value did it give?
The value was 17.9%.

Which “hERG current change (%, negative = inhibition) at 10uM” value does the source give for `Cc1cc(C(=O)CCC(=O)Nc2ncccc2O)c(C)s1` here?
Its value is -17.5%.

With `CC(C)(C)NC(=O)c1cccc(NC(=O)c2ccco2)c1` as the compound, how does the “hERG current change (%, negative = inhibition) at 10uM” value read?
The value was 4.04%.

Which “hERG current change (%, negative = inhibition) at 10uM” value does the source give for `CN(C)c1ccc(/C=C/C=C2/SC(=S)N(c3ccccc3)C2=O)cc1` here?
Its value is 9.2%.

For `O=C(O)c1cccc(NC(=O)c2ccc(Cl)c(S(=O)(=O)N3CCCCCC3)c2)c1`, which “hERG current change (%, negative = inhibition) at 10uM” value is on record?
The value was 21.8%.

For `CCn1c(C)nc2cc(-c3nnc(-c4c(-c5ccccc5)noc4C)o3)ccc21`, which “hERG current change (%, negative = inhibition) at 10uM” value is on record?
Its value is -25.2%.

For `CC1(C)Cc2c(sc3nc(SCC(=O)N4CCOCC4)nc(N)c23)CO1`, which “hERG current change (%, negative = inhibition) at 10uM” value is on record?
The value was -6.36%.

`O=C(O)c1ccc(NS(=O)(=O)c2cccc(C(=O)Nc3ccc(Br)cc3)c2)cc1` was tested. Which “hERG current change (%, negative = inhibition) at 10uM” value did it give?
The value was 10.4%.

How did the “hERG current change (%, negative = inhibition) at 10uM” value turn out when `O=C(Cn1c(CCCO)nc2ccccc21)Nc1ccccc1-c1ccccc1` was run?
Its value is -7.12%.

Which “hERG current change (%, negative = inhibition) at 10uM” value does the source give for `CCN1C(=O)/C(=C/c2cn(C)nc2C)SC1=S` here?
The value was -5.39%.

How did the “hERG current change (%, negative = inhibition) at 10uM” value turn out when `CN1C[C@@H]2C(c3ccc(C(F)(F)F)cc3)C3(c4ccccc4)CC2(C3)[C@H]1c1ccccc1` (stereo partly drawn) was run?
Its value is -1.14%.

How did the “hERG current change (%, negative = inhibition) at 10uM” value turn out when `CC(=O)Nc1ccc(NC(=O)C2CCCN(S(=O)(=O)c3ccc(Cl)cc3)C2)cc1` (stereo not drawn) was run?
Its value is 22.1%.

With `Cc1cccc(Nc2ncccc2C(=O)NCc2cccs2)c1C` as the compound, how does the “hERG current change (%, negative = inhibition) at 10uM” value read?
The value was -9.66%.

With `CC(NC(=O)C1CCC1)c1ccccc1` (stereo not drawn) as the compound, how does the “hERG current change (%, negative = inhibition) at 10uM” value read?
The value was 14.9%.

How did the “hERG current change (%, negative = inhibition) at 10uM” value turn out when `COC(=O)C(CC(=O)c1ccc(C)cc1)n1nc(C)cc1C` (stereo not drawn) was run?
Its value is 4.37%.

How did the “hERG current change (%, negative = inhibition) at 10uM” value turn out when `CCOC(=O)[C@H]1[C@H]2COc3ccc(C)cc3[C@@H]2N2C(=O)c3cc(Cl)ccc3NC(=O)[C@@]12C` was run?
The value was 12.1%.

How did the “hERG current change (%, negative = inhibition) at 10uM” value turn out when `O=C(CN1C(=O)C2CC=CCC2C1=O)Nc1nc2ccccc2s1` (stereo not drawn) was run?
The value was -0.314%.

`O=C(COC(=O)c1nc(Cl)ccc1Cl)Nc1ccc(Cl)cn1` was tested. Which “hERG current change (%, negative = inhibition) at 10uM” value did it give?
Its value is -16.1%.

Which “hERG current change (%, negative = inhibition) at 10uM” value does the source give for `Cc1ccc(C(=O)Nc2nc3c(s2)CCCC3)o1` here?
The value was -7.5%.

How did the “hERG current change (%, negative = inhibition) at 10uM” value turn out when `O=C(Nc1ccc2c(c1)OCO2)C1CC1(Cl)Cl` (stereo not drawn) was run?
The value was 3.77%.

Which “hERG current change (%, negative = inhibition) at 10uM” value does the source give for `CCCC(=O)Nc1cccc(-c2cn3cccnc3n2)c1` here?
The value was -9.53%.

How did the “hERG current change (%, negative = inhibition) at 10uM” value turn out when `Cc1ccc(O)c(C2=NCCNC(C(F)(F)C(F)F)=C2)c1` was run?
The value was -34.1%.

How did the “hERG current change (%, negative = inhibition) at 10uM” value turn out when `CNS(=O)(=O)c1cccc(C(=O)OCC(=O)/C=C2/N(C)c3ccccc3C2(C)C)c1` was run?
The value was -22.4%.

`O=C(Nc1ccccc1C(=O)Nc1ccc2c(c1)OCO2)c1cccs1` was tested. Which “hERG current change (%, negative = inhibition) at 10uM” value did it give?
Its value is 3.6%.

Which “hERG current change (%, negative = inhibition) at 10uM” value does the source give for `CN(C)C(=O)NC1C=CS(=O)(=O)C1` (stereo not drawn) here?
Its value is 3.93%.

For `Cc1cccc(NC(=S)N(CCCN2CCOCC2)C(C)c2cc3ccccc3o2)c1C` (stereo not drawn), which “hERG current change (%, negative = inhibition) at 10uM” value is on record?
The value was -20.9%.
